# According to PubChem BioAssay AID488969 (Vanderbilt High Throughput Screening Facility, 2010):
# In all, about 110,000 compounds were measured (“z-score”: median about -0.1, highest 2% from about 2 on). The list shows a part of the results. Activity calls are given as the source filed them.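 The calls were made as follows: active = z-score in the third read window above 3 or below -3; inactive = the rest.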
# Target: Metabotropic glutamate receptor 8 (Rattus norvegicus) (UniProt P70579)
# Test: mGluR8 Gi/Go-coupled signaling modulation – cell-based, rat, thallium flux, HTS, primary screen (AID 488969)
# Conditions: HEK293 rat mGluR8, GIRK (G protein-gated inwardly rectifying potassium channel) thallium flux, FluoZin2; at 10 µM; stronger effect = higher value; submaximal glutamate (EC20) added with thallium
# Chain of UniProt P70579 (P70579 whole entry, looked up): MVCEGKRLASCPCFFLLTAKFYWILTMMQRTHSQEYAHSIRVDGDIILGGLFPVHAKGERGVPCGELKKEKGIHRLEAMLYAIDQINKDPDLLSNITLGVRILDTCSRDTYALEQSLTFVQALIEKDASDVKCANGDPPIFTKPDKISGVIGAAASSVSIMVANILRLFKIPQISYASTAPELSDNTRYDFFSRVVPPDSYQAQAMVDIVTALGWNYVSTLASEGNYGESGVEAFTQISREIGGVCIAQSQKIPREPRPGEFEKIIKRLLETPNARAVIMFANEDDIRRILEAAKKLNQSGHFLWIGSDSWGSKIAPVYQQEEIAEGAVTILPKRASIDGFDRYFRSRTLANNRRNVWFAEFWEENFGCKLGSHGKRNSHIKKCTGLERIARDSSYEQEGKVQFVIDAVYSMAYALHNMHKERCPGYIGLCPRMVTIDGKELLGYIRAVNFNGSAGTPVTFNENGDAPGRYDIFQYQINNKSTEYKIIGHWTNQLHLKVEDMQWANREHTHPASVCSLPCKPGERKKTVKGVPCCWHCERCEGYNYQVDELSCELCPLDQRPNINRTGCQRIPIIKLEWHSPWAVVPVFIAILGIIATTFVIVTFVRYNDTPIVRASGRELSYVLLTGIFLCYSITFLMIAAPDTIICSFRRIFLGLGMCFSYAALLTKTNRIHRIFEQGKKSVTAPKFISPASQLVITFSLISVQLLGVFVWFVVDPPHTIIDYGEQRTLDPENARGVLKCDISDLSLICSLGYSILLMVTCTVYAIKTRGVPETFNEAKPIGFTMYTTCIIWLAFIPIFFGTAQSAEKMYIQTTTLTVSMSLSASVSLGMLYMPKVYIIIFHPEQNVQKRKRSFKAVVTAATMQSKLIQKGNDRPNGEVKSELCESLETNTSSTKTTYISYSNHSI
row,SMILES,z-score
1,COc1ccc(-c2noc(C3CCCN(S(=O)(=O)c4ccc(C)c(Cl)c4)C3)n2)cc1OC (centres undefined),-0.0247
2,CN(CC(=O)Nc1ccccc1C(=O)N1CCCC1)S(=O)(=O)c1ccc(Br)cc1,-0.477
3,COc1cc(-n2c(=O)c3ccccc3n(Cc3ccccc3)c2=O)cc(OC)c1OC,-0.047
4,COc1ccccc1N1CC(O)=C(c2nc3ccccc3c(=O)[nH]2)C1=N,-0.243
5,COc1ccccc1C(=O)OCc1c(F)cccc1Cl,-0.429
6,CCOc1ccc2cc(C(=O)c3ccccc3)c(=O)oc2c1,-0.201
7,Cc1ccc(S(=O)(=O)NCc2ccc(C(=O)N3CCN(Cc4ccccc4)CC3)cc2)cc1,0.979
8,COCCN1C(=O)c2ccccc2C(C(=O)N2CCN(c3ccccn3)CC2)C1c1ccc(F)cc1 (centres undefined),-0.0819
9,Cc1nc(NC2=NCN(CC3CCCO3)CN2)nc2ccccc12 (centres undefined),0.234
10,C=CCn1c(SCCOc2ccccc2)nnc1C(C)NC(=O)c1ccccc1 (centres undefined),-0.293
11,COc1ccc(S(=O)(=O)c2ccc(O)cc2)cc1,-0.766
12,O=C(CC1(O)C(=O)Nc2ccccc21)c1ccccc1 (centres undefined),-0.202
13,Cc1cc(C)c(NC(=O)c2ccccc2CCc2ccccc2)c(C)c1,-0.209
14,C=CCOc1ccc(CNC(C)(C)CO)cc1OC,0.0461
15,CCCOc1ccc(C(C)=O)cc1CC(C(N)=O)C(N)=O,-0.278
16,COc1ccc(-c2nnc3sc(-c4ccco4)nn23)cc1OC,0.194
17,O=C(Cn1ncc2c(=O)oc3ccccc3c21)NCC1COc2ccccc2O1 (centres undefined),-0.548
18,CCOC(=O)CSc1nn(C)c(=S)s1,0.114
19,Cn1c(SCC(=O)NC2CCCCC2)nnc1-c1cccc(N)c1,0.142
20,O=C(NC1CCS(=O)(=O)C1)/C(=C\c1ccccc1)NC(=O)c1ccccc1 (centres undefined),-0.336
21,CCCN1C(=O)C(Cc2nc3ccccc3c(=O)n2C)c2ccccc21 (centres undefined),0.507
22,CCN(CC)S(=O)(=O)c1cccc(-c2nnc(-c3ccc(C)cc3)o2)c1,-0.118
23,COc1ccc(N2C(=O)CC(n3c(CCCCO)nc4ccccc43)C2=O)cc1 (centres undefined),0.0715

row,SMILES,z-score
1,CO/N=C/c1ccc(Sc2ccc(C)cc2)c([N+](=O)[O-])c1,-0.349
2,Cc1[nH]c(=O)[nH]c(=O)c1S(=O)(=O)N1CCN(c2cccc(Cl)c2)CC1,0.557
3,CCN1C=C(Cc2ccc(F)cc2)C2=C(C1)C(c1ccc(F)cc1)C(C#N)=C(N)O2 (centres undefined),-0.0952
4,CNC(=S)N1N=C(c2ccccc2)CC1c1ccc(OC)c(OC)c1 (centres undefined),-0.0108
5,O=C(CS(=O)(=O)c1cn(Cc2ccccc2Cl)c2ccccc12)N1CCOCC1,-0.195
6,CCCCC1CCC(c2ccc(C(N)=O)cc2)CC1 (centres undefined),0.227
7,Cc1ccc(NS(=O)(=O)c2cc(C(=O)N3CCN(C)CC3)ccc2C)cc1,0.0202
8,Cc1c(/C=N/NC(=O)c2ccc(O)cc2)c2ccccn2c1C(=O)c1ccc(F)cc1,-0.233
9,O=C(NCCOc1ccccc1)C(c1ccccc1)c1ccccc1,-2.15
10,CC1=NN(C(=O)Cc2ccc(C)cc2)C(O)(c2cccnc2)C1 (centres undefined),0.145
11,O=C(CCS(=O)(=O)c1ccc(Cl)cc1)N1CCN(S(=O)(=O)c2cccs2)CC1,0.373
12,O=C(NCCSCc1ccco1)Nc1ccc(Cl)cc1,0.159
13,CCCc1nc(SCC(=O)NNC(=O)C2CCCCC2)c2ccccc2n1,-0.121
14,CC(C)Oc1ccc(N2CC(C(=O)OCC(=O)NCc3ccccc3)CC2=O)cc1 (centres undefined),-0.0828
15,O=C1C(c2ccc(F)cc2)N(Cc2ccc3c(c2)OCO3)C(=O)CN1C1CCCC1 (centres undefined),-0.315
16,COc1ccc(CNC(=O)CN(C2CCCCC2)S(C)(=O)=O)cc1,0.463
17,O=C(CCC(=O)N1CCN(S(=O)(=O)c2ccc(Cl)cc2)CC1)Nc1ccc2ccccc2c1,-0.149
18,Cn1nc(C(F)(F)F)c(C#N)c1N1CCN(c2ccccc2)CC1,-1.42
19,COc1ccccc1-n1c(C)nnc1SCC(=O)Nc1cc(C)cc(C)c1,0.0631
20,CN(CC(=O)NCCN1CCN(c2ccccc2)CC1)S(=O)(=O)c1ccc2c(c1)CCC(=O)N2,0.291
21,CC1CCN(C(=O)c2ccc(S(=O)(=O)N(C)C)cc2)C(C)C1 (centres undefined),-0.425
22,CCN(CC)CCN=CC1=C(O)CNC1=O,-0.881
23,Cc1ccc(C(=O)NC(C)(COc2nonc2C)COc2nonc2C)cc1,-0.0583

row,SMILES,z-score
1,Cn1cc(Cl)c(C(=O)N2CCN(c3ncccn3)CC2)n1,0.139
2,Cc1ccc(C(=O)NC(NC(=S)Nc2ccc(S(N)(=O)=O)cc2)C(Cl)(Cl)Cl)cc1 (centres undefined),-0.106
3,O=C(CSc1nc2ccccc2s1)Nc1ccc2c(c1)oc1ccccc12,-0.268
4,COCCn1c(SCC(=O)NCc2ccco2)nc2cccnc21,0.0661
5,CC(=O)C(C)Oc1ccc2c3c(c(=O)oc2c1)CCCCC3 (centres undefined),-0.267
6,CCS(=O)(=O)Nc1cc(-c2nc3cccnc3s2)ccc1C,-0.386
7,CCN(CC)c1cc(C)c2cc(NC(=O)c3ccc(Br)o3)ccc2n1,-0.522
8,CC1=NOC(=O)/C1=C\c1ccc(-c2cc(Cl)ccc2Cl)o1,0.406
9,CS(=O)(=O)N1CCC(C(=O)Nc2ccc(Cl)c(C(F)(F)F)c2)CC1,-0.153
10,COc1cccc(N2CCN(c3c4c(nc5ncnn35)CCC4)CC2)c1,active: 5.19
11,CCN(CC)C(=O)C(=O)c1cccn1-c1cccc(Cl)c1C#N,0.32
12,CCOC(=O)NC(=O)CSc1ccccn1,-1.84
13,CC(C)(C)c1cn(-c2ccc(F)cc2)c(=S)[nH]1,0.329
14,O=C(c1cc2ccccc2o1)N1CCCCCC1,-0.185
15,O=C(CSc1ccccc1)Nc1cccc(NC(=O)c2ccco2)c1,-0.237
16,CC(=O)N1c2ccc(Cl)cc2C2C=CCC2C1c1cccc2ccccc12 (centres undefined),-0.185
17,CCOC(=O)c1[nH]c(C)c(C(=O)Nc2ccc(Cl)cc2)c1C,-0.232
18,COc1cc(CNCCc2ccc(F)cc2)ccc1OCc1ccc(Cl)nc1,0.172
19,O=C(N/N=C/c1ccco1)c1cccc(N2CCCC2=O)c1,0.0141
20,O=C(CSc1ccsc1[N+](=O)[O-])NCCc1ccc(Cl)cc1,0.0211
21,O=C(NCc1ccc2c(c1)OCO2)C1CCCN(S(=O)(=O)c2cccc3cccnc23)C1 (centres undefined),-0.38
22,COCCn1c(SCC(=O)Nc2ccc(S(=O)(=O)N(C)C)cc2)nc2ccccc21,-0.813
23,O=C(COC(=O)/C=C/c1nc2ccccc2s1)Nc1cccc2ccccc12,-0.127
